# Source: paper PMC10726135
# The other results are listed elsewhere or left out. At the low end of the ranking the order means little. Measured with an extract: partners may take part in the binding.
# Molecular target: T1, HNF4alpha2 (COS-7 nuclear extract) (UniProt P41235)
# T1 sequence: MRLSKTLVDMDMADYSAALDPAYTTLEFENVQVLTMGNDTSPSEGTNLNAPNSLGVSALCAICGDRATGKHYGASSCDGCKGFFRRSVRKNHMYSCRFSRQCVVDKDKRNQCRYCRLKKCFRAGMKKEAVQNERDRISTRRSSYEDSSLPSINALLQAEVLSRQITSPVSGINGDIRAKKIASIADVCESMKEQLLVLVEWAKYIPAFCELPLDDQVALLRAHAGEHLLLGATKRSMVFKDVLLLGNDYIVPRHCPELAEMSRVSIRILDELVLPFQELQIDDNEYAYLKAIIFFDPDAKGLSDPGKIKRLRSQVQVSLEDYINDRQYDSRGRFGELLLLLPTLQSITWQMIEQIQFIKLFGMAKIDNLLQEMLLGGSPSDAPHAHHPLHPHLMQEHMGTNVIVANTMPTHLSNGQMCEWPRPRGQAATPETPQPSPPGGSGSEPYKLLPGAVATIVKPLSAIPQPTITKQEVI
# Assay: protein-binding microarray
# Settings: COS-7 nuclear extract on double-stranded Agilent 4x180k PBM; binding buffer, salt, pH and temperature not given; high values mean tight binding; double strand, one strand shown; sequences stand for … in …GCCTAGGGAGATTAGAGTATCGGTCGA
row,Sequence,binding signal (log2 normalized intensity)
1,TCCCTGAAGGCCAGGCAGCACAATTTGTGT,-0.871
2,GTGAGGTCAGTTGATAAACAGATAACTGGG,0.0869
3,GGCAGAATCTAGGATAACTCTAGTGATCTT,-0.388
4,ACGACCTTTGGACTTGAATTATCCTTATGG,6.27
5,GACATTCCAGAAATACTTGTTATATTGGAT,0.764
6,GAAACAGGGGATGTTGATTCCCCTGTTGTC,0.0619
7,CCCTTTGGGAAGGGGCAAAAGAGAGCGAAG,-1.08
8,ACGCCCCACCCCCTCCACCCCTGCCTTTCA,6.39
9,ACAGTTCCAGGAATGGAAACCCCTGTAAGT,0.871
10,CCAAAGTCTAGATGCTGGGCAGCTTGTGTG,1.15
11,GAGGCTTCTGGCCAGGCAGAGCAGGTTCTC,-1.16
12,AAGTACATTAATATACTGTGTATACAAAGA,1.36
13,TCTCCTGTTCTCTTTATTTATTAACTGGAG,1.51
14,CTGGAACTCAAAGGTCAAATGACAGAAGCA,3.02
15,GCTAAGTGGAGGATTTGGGTGATGTTTGGT,1.88
16,CACTCTTGCTATGCAAACAGACTGGCGGCG,-0.994
17,CTCAGAATCTGCCGATCACTGGCCCAGCTG,-1.1
18,AAGGGTCTCCTGGAATGCAAGACCTCAGCC,-1.26
19,CACCTGCCTGAACAAGTCCAGTGACGGGTA,-1.1
20,CTTTGGACTTGAATTATCCTTATGGTCTCT,0.855
21,TTAACCTTTGATCTGTAAGCTCTCTGCTTA,3.69
22,TAGAAGAAAGTCTTGATAAGAAACCCAAGA,-1.04
23,GATGATTCTAAAGGCACAATCAGGGCTAAA,-1.24
24,TGAACTTCATGTGTGGTGCAGATTCCACAC,1.03

row,Sequence,binding signal (log2 normalized intensity)
1,GGACCTGAGGCTTTTGAGTCAATAATGGAC,1.21
2,TCTGAGGGCTACTATCTGAAGACTTCCTCT,-1.27
3,GTACCTGCGACTGAGCCCTAAGAAATCTCC,-1.1
4,CCTGCATATCCTGACTGCTGACCTTTAAGC,4.85
5,GGCGGGGCGGGGCAGCAGGGAAGAGCCGGC,-1.13
6,CAGACTGCTGTGTTACTAGAGCCAAGGAAG,-1.05
7,GCGCATCGGGCGCCAGCGCCCCCGTGTGGC,0.945
8,TTCTCAACAGACCCCTGAATTGGTCATAAT,2.54
9,TCAAAAGGACTCCCAGAGCATACATGCAGC,-1.11
10,GCAGCAAGGCCTGAATGAGCTCTGGGGTCC,-0.799
11,GCCAATTCAGCAAACAAAGGCACTTCTCTC,-0.96
12,ACCTCCAAGAGGTTTTAGGCTATCAGACAG,-1.12
13,CCGCTGCTGTCTCGGGGCCAGGTGGGCTGC,-1.05
14,GCTGAGGCAGAGTTGTTTGCAGAGGGAAAG,-1
15,GGCTTATTTTAGGAGCCTCCAATCAGGACA,-1.16
16,GATGGCTATGAAGAAAAACAAGTGGAGTAG,-0.907
17,TGGCTGGGCCCTGACCTCAAGTGACCTTTG,7.17
18,CAAATGAATAATCCCCTCCTGGACTTTGGT,4.73
19,TGATTTGTATGATCTTGGGTATATCCTTTA,1.54
20,TAGAAGCAGTGGGACAAAGGTCACAGGAAA,4.42
21,GAATGTTTTATGTGCTCCATCAGTGGTAAA,1.82
22,AAGTGTTCAGCAAATACTAATTCTCCCCCA,4.01
23,CATGAAATTGAGATAAACATGAAACAGTCA,0.00284
24,GGCCAAAGAGCAAAGGACCAAAAGATATTT,-0.55

row,Sequence,binding signal (log2 normalized intensity)
1,AGCCCAACACGGGCGAAAAAGACGCGGTCT,-1.22
2,TAAACAAAGATACTCTCATCACTTAGGATA,-1.12
3,CCCTGCTGTGTCACGTACCGGCTAGACAAA,-1.13
4,TTTTGCCAAAGAGGTCTTATGCTCACATAC,-0.754
5,ATTAGAGCAACCAGAATGTTCAAAAGTGTG,1.33
6,CTTTTCCTTATCATCACATGTGCAAGGGCA,2.53
7,CTTGCACTGTAAGATCAAGATTAAGAAGAG,-0.992
8,GTCCCTGGCCAATCCCAGGGTCAGAGGTCG,5.85
9,CTTCCAATGAAAGGTTAACCTGCTGGTTTA,0.913
10,TAGAGATAAGGTAACAGGCCAAAGGGCAAG,3.3
11,ATCATTCACGTGCCTGAGATTCCTTCAAAG,-1.15
12,GTGATAATAAATGTGTTTCATCAGTCCAAT,1.76
13,GATATTCCAAAAGGGCAGCAGTAACCCCCC,4.57
14,ACGACGCTCCTATCATCCCTATCACTCAAG,-0.806
15,CCCAGGGACTTTGGCCTTACTTGGCCTGTT,2.62
16,TCAAAGGTTAATGAGCCCCCTAAAAAGAAA,3.18
17,AGGGCTCTCTCACCAGAAAAATGTACATGT,0.989
18,TCTAGACCTGGACTTGAAGCCAGACTCTGC,-0.751
19,CCAGAACCTTGTGCAGTATCCCAGGGACTT,-1.07
20,TTTTTTCCGAACGCCAGCAGCAGGGTCAGA,1.1
21,TTCATGGGTGAAAGGGACTCATCTCCAAAC,-0.725
22,CTCTTGCTATGCCTTAGCAAACAGACTGGT,0.115
23,CAGCCCCAATGGCTAAGGTCACCATGACCA,2.11
24,ATCAAATACAGAATCAATGCCTGATTCCAA,-1.06

row,Sequence,binding signal (log2 normalized intensity)
1,GCTGGAACTCCTCCGGTCAAGATCAAGTGG,0.207
2,CGGCCTCTGGGAAATGTAGTTCCGGAGAAC,-0.704
3,AGCTATGCCTGAGGCTGAGGTTGCCCAGGG,-1.09
4,GCAATCATGCACCTGCGGATAATCAAAGGT,-1.05
5,ACCTGTGTCCCCCAGGTCCAGCCTTTGGGC,2.67
6,CTTTTTCTGAGCCTGGGTCACCCCTATAAT,2.16
7,CAAGAAGGTCAGAGGTGAGAGCAGAATGAG,-1.18
8,GAGAGCTGTCTGCTGAGGATGTGGCCCCGA,2.25
9,ATCTTCATTTATAGATAAGCACACTAAGGC,-1.04
10,ACAGAACCTTGTTTTGTCTTCTGTTTGCAA,0.845
11,CACTTGTAGGCCTGTGTGCATGGAGTGCAC,1.42
12,CGCAGCGAATGGTCGCGCCGGGCGCCGCTC,-1.06
13,CTCCTCTCCAGCCCATCCTAAGCCCCAGGG,1.15
14,CATCCTCATTGCCTCTGGGCTTTGATGGAC,1.64
15,AGCTTAGTTTGCCACGGTCAGCAATGTGGA,1.21
16,GCAGAGGGACAACTGAGTTACGTAATGTGT,1.36
17,ATCTGGTCTTACTGATGGGCAAAGTTTTCA,1.19
18,ACTAAATTCTTGTCAATGACCCTAATGGGG,2.16
19,AAGTGGGGGGAAAGAATAACGTTACAGTGG,-0.842
20,CTGAGGGGGGCCTCTTTTAAGAAGCCAGTG,-1.17
21,AACCTCACAGAAATCCAAAGGTCAACAGCC,3.85
